Reference: PubChem BioAssay AID1963576 (National Center for Advancing Translational Sciences (NCATS), 2024)
The campaign covered roughly 46,000 compounds. About 60 (0.1%) were called active. Inconclusive results (about 3%) are left out. Calls follow the shape of the dose curve; as a rule, active = well fitted inhibition curve with a large enough effect; inconclusive = small, poorly fitted or top-dose-only effect; inactive = no such curve, though single readings can be large or run the other way. This is one part of the list.

Test: Primary qHTS assay for Inhibitors of ovarian cancer metastasis using an organotypic tumor microenvironment (TME) model. Also: nearly all actives have a fitted effect of over 65% in size.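 As to activity change, negative = inhibition: plate controls were DMSO wells for no effect and tomatine positive control wells for full effect.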
Conditions: SKOV3ip1-GFP adhesion/invasion on 3D omental model, fluorescence; series mostly up to 45.8 µM; activity change, negative = inhibition: at the top concentration
Summary of the method: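 Adhesion/invasion was scored as fixed GFP-labeled SKOV3ip1 cell counts (488/509 nm), normalized to DMSO and tomatine controls. Cancer cells in serum-free medium, with four compound doses (0.36-46 umol/L), sat 2 hr at RT then 16 hr at 37 C on a 48 hr fibroblast/mesothelial/ECM culture.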

Row | SMILES | outcome | activity change, negative = inhibition
1 | Cc1cc(C)cc(OCC(=O)Nc2ccc(Cl)c(-c3nc4ncccc4o3)c2)c1 | inactive | –
2 | COc1cc2c(-c3ccc(C)cc3)nc3c(c(C)nn3-c3ccccc3)c2cc1OC | – | inactive: 12.7%
3 | COc1cccc(C2C(C(=O)Nc3ccccc3)=C(C)Nc3nnnn32)c1OC (stereo not given) | – | inactive: 4.37%
4 | CC(C)Oc1ccc(CNC(=O)c2cnc3sc(N4CCCCC4)nn3c2=O)cc1 | – | inactive: -28.2%
5 | N#C/C(=C\c1ccccc1)C(=O)Nc1sc2c(c1C(N)=O)CCC2 | – | inactive: -15.4%
6 | Cn1cnc(S(=O)(=O)N2CCC(C(=O)N3CCN(c4ccc(Cl)cc4)CC3)CC2)c1 | – | inactive: -3.02%
7 | CCc1ccccc1NC(=O)C1COc2ccccc2C1 (stereo not given) | – | inactive: 9.59%
8 | CCCn1c(=O)c2sccc2n2c(CCCC(=O)N3CCN(c4cccc(C)c4C)CC3)nnc12 | inactive | –
9 | Cc1ccc(NC(=O)CSc2nc3c(oc4ccccc43)c(=O)n2Cc2ccco2)cc1 | inactive | –
10 | COc1ccc(S(=O)(=O)NCc2ccc3c(c2)CCN3C(=O)c2ccc(C)cc2)cc1Cl | – | inactive: -0.811%
11 | CCOC(=O)C1CCN(C(=O)Cn2nc(C)n3c(cc4cc(C)ccc43)c2=O)CC1 | inactive | –
12 | COc1ccc(CCn2c(=O)c3cccnc3n(CC(=O)Nc3cccc(C)c3)c2=O)cc1OC | – | inactive: 2.55%
13 | Cc1cc2nc(-c3ccc(Br)cc3)cc(C(F)(F)F)n2n1 | – | inactive: 6.03%
14 | Cc1cc(C)cc(-n2ccnc2SCC(=O)Nc2ccc3c(c2)OCO3)c1 | inactive | –
15 | Cn1cc(-c2cc3n(n2)CCC(=O)N3CCCC(=O)Nc2ccc(F)cc2F)c2ccccc21 | – | inactive: 0.658%
16 | CC(=O)N(Cc1cccnc1)c1nc2c(C)cccc2s1 | – | inactive: 6.74%
17 | Cc1ccc2nc(NS(=O)(=O)c3ccc(Cl)cc3)c(Nc3ccc(C(=O)O)cc3)nc2c1 | – | inactive: -0.138%
18 | Cc1nnc2c(N3CCN(c4ccccc4)CC3)nc3ccc(C(=O)c4ccccc4)cc3n12 | – | inactive: 6.8%
19 | CCc1ccc(N2CCn3c2nc2c3c(=O)n(Cc3c(F)cccc3Cl)c(=O)n2C)cc1 | – | inactive: -7.76%
20 | Cc1nc2c(C(=O)NCCc3ccc(Cl)cc3)c[nH]n2c(=O)c1Cc1ccccc1F | inactive | –

Row | SMILES | outcome | activity change, negative = inhibition
21 | CCc1ccc(-c2cn3c(n2)sc2cc(C(=O)NCC(C)c4ccccc4)ccc23)cc1 (stereo not given) | – | inactive: -8.64%
22 | Cn1c(=O)c2sccc2n2c(CCC(=O)N3CCN(c4cccc(Cl)c4)CC3)nnc12 | – | inactive: 7.42%
23 | CCc1ccc(NS(=O)(=O)c2ccc(C(=O)N(C)C)s2)cc1 | inactive | –
24 | O=C(C1CC1)N1CCc2cc(Br)cc(S(=O)(=O)N3CCN(c4ccccc4)CC3)c21 | inactive | –
25 | CCOc1ccc(/C=C(\C#N)C(=O)Nc2sc3c(c2C(=O)OC)C(C(=O)OC)CC3)cc1OC (stereo not given) | – | inactive: -3.45%
26 | CCCCC(=O)Nc1nnc(S(=O)(=O)N(CC)c2cc(C)cc(C)c2)s1 | inactive | –
27 | Cc1c(CNCCc2ccc(S(N)(=O)=O)cc2)c(C(=O)O)c(C)n1Cc1ccc(Cl)cc1 | – | inactive: 10%
28 | CN(C(=O)CSc1nc2ccccc2n1CC(=O)N(C)c1ccc(F)cc1)c1ccccc1 | – | inactive: 7.35%
29 | CCOc1ccc(Nc2oc(-c3ccc(COc4ccccc4C)o3)nc2C#N)cc1 | – | inactive: 0.648%
30 | Cc1nc(-c2cccc(F)c2)sc1CCNC(=O)c1ccc(F)c(F)c1 | – | inactive: -13.4%
31 | CCN(c1ccccc1)S(=O)(=O)c1ccc(F)c(C(=O)Nc2ccc(C)cc2)c1 | – | inactive: -1.22%
32 | COc1ccc(CNCCSc2nnnn2-c2ccccc2)c(OC)c1 | – | inactive: -12.7%
33 | COc1ccc(N2CCN(C(=O)C3CCN(S(=O)(=O)Cc4ccccc4)CC3)CC2)cc1 | – | inactive: 3.93%
34 | Cc1ccc(CNC(=O)CN2C(=O)C3(SCC(=O)N3c3cc(C)cc(C)c3)c3ccccc32)cc1 (stereo not given) | inactive | –
35 | O=C(CSc1nccn1Cc1ccc(F)cc1)Nc1ccc2c(c1)OCO2 | inactive | –
36 | Cc1ccc(C)c(S(=O)(=O)NCC(c2ccco2)S(=O)(=O)c2ccc(F)cc2)c1 (stereo not given) | – | inactive: 0.579%
37 | Cc1cccc(N2CCN(c3nc4ccccc4c(=O)n3-c3ccc(Cl)cc3)CC2)c1C | – | inactive: -0.716%
38 | CCc1cccc(C)c1NC(=O)Cn1c(=O)cc(C(F)(F)F)c2c(C)nn(C)c21 | inactive | –
39 | CCOc1ccc(C(=O)Nc2ccc(S(=O)(=O)N3CCCCC3c3cccnc3)cc2)cc1 (stereo not given) | – | inactive: -15.3%
40 | COc1ccccc1-c1ccnc2[nH]n(-c3ccccc3)c(=O)c12 | – | inactive: 20.2%

Row | SMILES | outcome | activity change, negative = inhibition
41 | CCOc1ccc(C2C(=O)N(C3CCCCCC3)CC(=O)N2CCc2ccccc2)cc1OC (stereo not given) | – | inactive: 4.92%
42 | CCOc1ccc(CCNC(=O)c2cnc3sc(N4CCOCC4)nn3c2=O)cc1 | – | inactive: 7.71%
43 | CCC1CCCCN1C(=O)c1nn(-c2ccc(C)cc2)c(=O)c2c1c1ccccc1n2C (stereo not given) | – | inactive: -0.955%
44 | COc1ccc(Cn2ccnc2SCC(=O)NCc2ccccc2)cc1 | inactive | –
45 | O=C(Nc1c(-c2ccccc2)nc2ccccn12)c1ccc(Br)cc1 | – | inactive: -5.85%
46 | O=C(NCc1cccs1)C1CCN(C(=O)N2CCOc3ccccc32)CC1 | – | inactive: -12.9%
47 | O=C(Nc1ccc(F)cc1F)c1c2c(nc3ccccc13)C(=O)N(C1CCCCC1)C2 | – | inactive: 8.79%
48 | Cc1noc(C)c1S(=O)(=O)N(CC(=O)NCc1ccccc1Cl)c1ccc(C(C)C)cc1 | – | inactive: 9.75%
49 | Cc1ccc(N2CCN(C(=O)c3ccc4c(Cl)c5c(nc4c3)CCCC5)CC2)c(C)c1 | – | inactive: 79.7%
50 | COc1ccc(C2C(=O)N(C3CCCCC3)CC(=O)N2Cc2ccccc2Cl)cc1OC (stereo not given) | – | inactive: 6.21%
51 | COc1ccc(-c2nn(CC(=O)Nc3ccccc3F)c3c2cnc2ccc(F)cc23)cc1 | – | inactive: 2.79%
52 | Cc1ccc(N(CC(=O)N2CCN(c3ccc(Cl)cc3)CC2)S(=O)(=O)c2c(C)noc2C)cc1 | – | inactive: -11.3%
53 | CCOC(=O)c1cc(OC(=O)c2ccc(Cl)cc2)n(-c2ccccc2)n1 | – | inactive: 9.46%
54 | COc1ccc(N2CCN(S(=O)(=O)CCNC(=O)c3ccc(C(F)(F)F)cc3)CC2)cc1 | inactive | –
55 | Cc1ccc(C)c(N2CCN(CCCNC(=O)Cn3ncc4c([nH]c5ccccc54)c3=O)CC2)c1 | – | inactive: 1.33%
56 | Cc1ccc(-c2nc(S(=O)(=O)c3ccc(C)cc3)c(N3CCN(c4ccccc4)CC3)o2)cc1 | inactive | –
57 | COc1ccc(CNC(=O)Cn2ncn3nc(-c4cccs4)cc3c2=O)cc1 | – | inactive: -14.4%
58 | COc1ccc(CN2COc3ccc4c(-c5ccc(OC)cc5)cc(=O)oc4c3C2)cc1 | inactive | –
59 | CCOC(=O)c1ccc(NC(=O)CCS(=O)(=O)c2ccc3c(c2)oc(=O)n3C)cc1 | – | inactive: 1.24%
60 | CC(=O)NCCC(=O)N[C@@H](CCC(N)=O)C(=O)N[C@@H](CO)C(=O)N[C@@H](CCC(N)=O)C(=O)N[C@@H](CCC(N)=O)C(=O)N[C@H](C(=O)N[C@@H](Cc1ccccc1)C(=O)N[C@]1(C)CCCCCCC=CCCC[C@@](C)(C(=O)N[C@@H](CCC(N)=O)C(=O)N[C@@H](CC(N)=O)C(N)=O)NC(=O)[C@H](CC(C)C)NC(=O)[C@H](CC(C)C)NC(=O)[C@@H](CCCNC(=N)N)NC(=O)[C@H](Cc2c[nH]c3ccccc23)NC(=O)[C@H](CC(C)C)NC(=O)[C@H](CC(N)=O)NC1=O)[C@H](C)O | – | inactive: -5.02%
